Data: PubChem BioAssay AID651820 (National Center for Advancing Translational Sciences (NCATS), 2012)
Values joined by “and” are separate entries in the source; they are usually repeats but may differ in a detail not shown here. Equal entries are not always repeated. About 12,000 (3.5%) of roughly 340,000 compounds were called active. Inconclusive results, whose numbers are uncertain, are shown with a selection of clear calls. Calls follow the shape of the dose curve; as a rule, active = well fitted inhibition curve with a large enough effect; inconclusive = small, poorly fitted or top-dose-only effect, or another doubt; inactive = no such curve, though single readings can be large or run the other way. Potencies beside an inconclusive call are fits to weak or partial responses and may not hold up.

Experiment: qHTS Assay for Inhibitors of Hepatitis C Virus (HCV)
Conditions: Huh7.5.1 HCVcc-Cre (HCVcc is cell-culture hepatitis C virus) infection, luciferase reporter, 44 h; series mostly up to 41.8 µM
Procedure, shortened: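 Luciferase read-out (15 sec integration) after a 15 min room-temperature substrate step quantifies HCVcc-Cre infection. Cells, 1,000 per well, had compound added 4 h post-plating, then virus at ~0.5 moi, and were cultured 44 h.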
Potency is read from the fitted curve at half-maximal effect; tags tell the direction and shape of the fitted curve.

Row | Structure (SMILES) | Potency
1 | CCOC(=O)CC(NC(=O)C(Cc1ccc(N(CCCl)CCCl)cc1)NC(C)=O)C(=O)OCC (configuration not stated) | inconclusive: 7.08 µM [inhibitor, partial curve]
2 | Cc1nc(Cl)sc1C(=O)Nc1cccc2ccccc12 | inconclusive: 10 µM [inhibitor, partial curve, poor fit]
3 | O=C1Cc2ccccc2Sc2ccccc21 | inactive
4 | C=CCc1ccccc1OCC(O)CN1CCN(Cc2ccc3c(c2)OCO3)CC1 (configuration not stated) | inconclusive: 15.8 µM [inhibitor, single point] and inconclusive: 20 µM [inhibitor, partial curve, poor fit]
5 | C#CCOc1c(Br)cc(/C=N/O)cc1OCC | active: 2.24 µM
6 | Cc1onc(-c2ccccc2)c1C(=O)OCC(=O)N(C)c1c(N)n(Cc2ccccc2)c(=O)[nH]c1=O | inactive
7 | Cc1sc2ncn(CC(=O)N3CCC(C(N)=O)CC3)c(=O)c2c1S(=O)(=O)N1CC(C)CC(C)C1 (configuration not stated) | inactive
8 | Cc1nn2c(-c3ccco3)nnc2c2ccccc12 | inconclusive: 5.62 µM [inhibitor, single point]
9 | CCOc1ccc(NS(=O)(=O)c2ccc(C(=O)N(C)CC(=O)Nc3cccc(OC)c3)cc2)cc1 | inconclusive: 22.4 µM [inhibitor, single point]
10 | CCCn1nc(NC(=O)CC(C)C)c2cc3ccccc3nc21 | inconclusive: 8.91 µM [inhibitor, partial curve, poor fit]
11 | CC(SC(C)C(=O)NN=Cc1cccc(Cl)c1)C(=O)NN=Cc1cccc(Cl)c1 (configuration not stated) | inconclusive: 22.4 µM [inhibitor, single point]
12 | Cc1c(C(=O)NCc2ccc3c(c2)OCO3)oc2ccc(S(=O)(=O)N3CCCCC3)cc12 | inconclusive: 14.1 µM [inhibitor, single point]
13 | COc1ccc(OC)c(/C=C/C(=O)c2ccc3c(c2)OCO3)c1 | inconclusive: 7.94 µM [inhibitor, partial curve]
14 | O=C(Nc1ccccc1Cl)c1cccc(NC(=O)C2CCCC2)c1 | inconclusive: 7.08 µM [inhibitor, partial curve]
15 | COc1cc(OC)cc(-c2sc3ccc(OC)cc3c2C#CC(C)(C)O)c1 | inconclusive: 12.6 µM [inhibitor, single point]
16 | Cc1ccc(NC(=O)C2CSC3(C)CCC(=O)N23)cc1S(=O)(=O)N1CCCCCC1 (configuration not stated) | inconclusive: 31.6 µM [inhibitor, single point]
17 | CCOc1cc(/C=C/C(=O)OCC(=O)NCCN2C(=O)CSC2=O)ccc1OCC(C)C | inconclusive: 8.91 µM [inhibitor, partial curve]
18 | Cc1ccc(CSc2nnc(SCC(=O)N/N=C/c3c(C)nn(-c4ccccc4)c3C)s2)cc1 | inconclusive: 11.2 µM [inhibitor, partial curve]
19 | Cc1ccc(NC(=O)CSc2nc(=O)n(CCN(C)C)c3c2CCCC3)cc1Cl | inconclusive: 11.2 µM [inhibitor, partial curve]
20 | COc1cc(C(c2c(C)[nH][nH]c2=O)c2c(C)[nH][nH]c2=O)ccc1OCc1ccc([N+](=O)[O-])cc1 | inactive
21 | Cc1cc(O)c(C(C)C)cc1N=Cc1ccc(N(C)C)cc1 | inactive
22 | CCSc1ncc(Cl)c(C(=O)Nc2ccccc2OC)n1 | inactive
23 | C=CCOc1ccc(CNCc2cccnc2)cc1 | inconclusive: 0.501 µM [inhibitor, full curve, poor fit]

Row | Structure (SMILES) | Potency
24 | O=C(CCSc1nc(-c2ccco2)cc(C(F)(F)F)n1)NCc1ccccn1 | active: 11.2 µM
25 | O=C1C(SCCO)=C(SCCO)C(=O)c2ccccc21 | active: 10 µM
26 | CC[n+]1c(/C=C/C=C/N(C(C)=O)c2ccccc2)sc2ccccc21 | inconclusive: 31.6 µM [inhibitor, single point]
27 | CCOC(=O)CC1ON(C)C(=O)N1c1ccc(Cl)cc1Cl (configuration not stated) | inconclusive: 1.12 µM [inhibitor, full curve]
28 | Cc1nn(-c2ccccc2)c(C)c1Cc1ccc(O)cc1 | inconclusive: 22.4 µM [inhibitor, single point]
29 | COc1cccc(NC(=O)CCC(=O)Nc2ccc3nc(N4CCOCC4)cc(C)c3c2)c1 | inconclusive: 3.98 µM [inhibitor, full curve]
30 | N=c1n(CC(=O)c2ccc(Br)cc2)c2ccccc2n1Cc1ccccc1 | inconclusive: 25.1 µM [inhibitor, single point]
31 | Cc1cc(N2CCOCC2)nc2ccc(NC(=O)CCC(=O)N3CCN(c4ccccc4)CC3)cc12 | inconclusive: 7.08 µM [inhibitor, partial curve]
32 | COc1ccc(-n2nc(C(=O)NCC(=O)NCCC3=CCCCC3)c3ccccc3c2=O)cc1 | inactive
33 | CC(=O)N1c2ccc(S(=O)(=O)N3CCCC(C(=O)NCc4ccccc4Cl)C3)cc2CC1C (configuration not stated) | inconclusive: 10 µM [inhibitor, partial curve]
34 | O=C(Nc1ccccc1N1CCOCC1)c1cccc(F)c1 | inconclusive: 5.62 µM [inhibitor, single point]
35 | CCOc1ccc2nc(NCCNC(=O)Nc3cccc(C)c3)c(C#N)cc2c1 | inconclusive: 10 µM [inhibitor, partial curve]
36 | CCCc1cc(=O)oc2cc3oc(C)c(C)c3cc12 | active: 22.4 µM
37 | COc1cc(/C=C/C(=O)c2ccc3c(c2)OCO3)cc(OC)c1OC | inconclusive: 11.2 µM [inhibitor, partial curve]
38 | O=c1oc2ccccc2cc1-c1nnc(NCc2ccco2)s1 | inactive
39 | Cc1cccc(Nc2ncc3c(n2)CC(c2ccco2)CC3=O)c1 (configuration not stated) | inactive
40 | CC1c2cc3c(cc2CCN1C(=O)c1ccc(Cl)cc1)OCCCO3 (configuration not stated) | inconclusive: 10 µM [inhibitor, partial curve]
41 | Oc1ccc(-c2cc(-c3ccc(O)cc3)nc(-c3ccccc3)n2)cc1 | inconclusive: 12.6 µM [inhibitor, single point]
42 | [O-][n+]1onc2c3cc(-c4ccccc4)nnc3ccc21 | inconclusive: 7.08 µM [inhibitor, partial curve]
43 | Cc1ccc(NC(=O)C2CCN(S(=O)(=O)c3cc([N+](=O)[O-])ccc3Cl)CC2)nc1 | active: 5.01 µM
44 | CCOC(=O)/C(C#N)=C/c1c(N2CCN(c3cccc(Cl)c3)CC2)nc2c(C)cccn2c1=O | inconclusive: 22.4 µM [inhibitor, single point]
45 | CC(C)(C)c1ccc(C(=O)NCCCN2CCN(CCCNC(=O)c3ccc(C(C)(C)C)cc3)CC2)cc1 | inconclusive: 10 µM [inhibitor, partial curve]
46 | O=C(OCc1cccc(F)c1)c1ccc2c(=O)n3c(nc2c1)CCC3 | inconclusive: 3.16 µM [inhibitor, partial curve]

Row | Structure (SMILES) | Potency
47 | O=C(Nc1ccc(F)cc1)c1cc(S(=O)(=O)N2CCCCC2)cs1 | inconclusive: 12.6 µM [inhibitor, single point]
48 | CC(=O)c1ccc(N(CC(=O)Nc2cc(C)on2)S(=O)(=O)c2ccc(C)cc2)cc1 | inconclusive: 22.4 µM [inhibitor, single point]
49 | Cn1nc(C(=O)Nc2ccc(S(=O)(=O)N3CCCCC3)cc2)c2ccccc2c1=O | inactive
50 | O=C(Nc1nc2c(s1)CCCC2)c1cc(-c2ccncc2)nc2ccccc12 | inconclusive: 1.58 µM [inhibitor, partial curve, poor fit]
51 | CCc1ccc(NC(=O)C(=O)N/N=C(\C)CC(=O)NCc2ccc(Cl)cc2)cc1 | inactive
52 | CC(=O)c1cn(Cc2ccc(C#N)cc2)c2ccccc12 | inconclusive: 31.6 µM [inhibitor, single point]
53 | O=C(CN(c1ccccc1)S(=O)(=O)c1ccccc1[N+](=O)[O-])Nc1cccnc1 | inconclusive: 12.6 µM [inhibitor, partial curve]
54 | C=CCNC(=O)c1ccccc1NS(=O)(=O)c1ccc(SC)cc1 | inactive
55 | COc1ccccc1N1CCN(C(=O)COc2ccc(C)cc2Br)CC1 | inconclusive: 11.2 µM [inhibitor, single point]
56 | Cc1ccc(S(=O)(=O)CC2CSc3nc4ccccc4n32)cc1 (configuration not stated) | inconclusive: 2.82 µM [inhibitor, full curve]
57 | O=C(COC(=O)c1cc([N+](=O)[O-])ccc1N1CCOCC1)Nc1ccc(Cl)cc1 | inconclusive: 10 µM [inhibitor, partial curve]
58 | CCn1c(SCC(=O)N/N=C/c2ccc(C)s2)nc2ccccc21 | inconclusive: 22.4 µM [inhibitor, single point]
59 | OCC1(Cc2ccccc2)CCN(C2CCN(c3ccccc3F)CC2)CC1 | inactive
60 | CCNc1ccc(Br)cc(C(=O)/C=C/c2ccc(Cl)cc2)c1=O | inconclusive: 10 µM [inhibitor, partial curve]
61 | C/C(=N\NC(=O)c1ccn(C)n1)c1ccc(NC(=O)C2CCCC2)cc1 | inactive
62 | Clc1cccc(Cl)c1CSc1nnc(-c2sccc2-n2cccc2)o1 | inconclusive: 22.4 µM [inhibitor, single point]
63 | Cn1ncc(Cl)c1C(=O)NCc1ccco1 | inactive
64 | COC(=O)c1[nH]c2cc(OC)ccc2c1NC(=O)CN1CCN(c2cccc(C)c2)C(C)C1 (configuration not stated) | active: 10 µM
65 | CC1CCN(C(=O)CSc2nnc(-c3cc4ccccc4cc3O)n2Cc2ccco2)CC1 | inconclusive: 25.1 µM [inhibitor, single point]
66 | COc1ccc(C(=O)N2CCC(n3c(C)nc4cc(F)ccc43)CC2)cc1OC | inconclusive: 22.4 µM [inhibitor, single point]
67 | CC1CCCCN1S(=O)(=O)c1ccc(N(C(=O)c2cnccn2)C(C(=O)NC2CCCCC2)c2cccs2)cc1 (configuration not stated) | inconclusive: 2.82 µM [inhibitor, full curve]
